Positions count from the first letter of the chain named. The list shows a part of the results.
T1: RBFOX1 RRM (Homo sapiens, UniProt Q9NWB1 109-208)
T1 sequence: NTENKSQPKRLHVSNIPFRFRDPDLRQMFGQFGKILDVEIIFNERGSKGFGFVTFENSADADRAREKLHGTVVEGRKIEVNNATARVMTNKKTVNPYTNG

B1: UAAGUCG (DNA:RNA)
RNA: GGGAGACCGGAAUUCAGAUUGUCCUAAGUCGUUAAAUCCCGUCGUAGCCACCA
DNA 1: CAATCTGAATTCCGGTCTCCC
DNA 2: TGGTGGCTACGACGGGATT
B2: CUGUUCC (DNA:RNA)
RNA: B1 RNA with U25C, A26U, A27G, G28U, G31C
DNA 1: CAATCTGAATTCCGGTCTCCC
DNA 2: TGGTGGCTACGACGGGATT
B3: ACGUGCG (DNA:RNA)
RNA: B1 RNA with U25A, A26C, A27G, G28U, U29G
DNA 1: CAATCTGAATTCCGGTCTCCC
DNA 2: TGGTGGCTACGACGGGATT
B4: CUCGUUA (DNA:RNA)
RNA: B1 RNA with U25C, A26U, A27C, C30U, G31A
DNA 1: CAATCTGAATTCCGGTCTCCC
DNA 2: TGGTGGCTACGACGGGATT
B5: CACGUUG (DNA:RNA)
RNA: B1 RNA with U25C, A27C, C30U
DNA 1: CAATCTGAATTCCGGTCTCCC
DNA 2: TGGTGGCTACGACGGGATT
B6: UACGUAG (DNA:RNA)
RNA: B1 RNA with A27C, C30A
DNA 1: CAATCTGAATTCCGGTCTCCC
DNA 2: TGGTGGCTACGACGGGATT
B7: CAGUUCA (DNA:RNA)
RNA: B1 RNA with U25C, A27G, G28U, G31A
DNA 1: CAATCTGAATTCCGGTCTCCC
DNA 2: TGGTGGCTACGACGGGATT
B8: GGCUCGG (DNA:RNA)
RNA: B1 RNA with U25G, A26G, A27C, G28U, U29C, C30G
DNA 1: CAATCTGAATTCCGGTCTCCC
DNA 2: TGGTGGCTACGACGGGATT
B9: CGGAUAG (DNA:RNA)
RNA: B1 RNA with U25C, A26G, A27G, G28A, C30A
DNA 1: CAATCTGAATTCCGGTCTCCC
DNA 2: TGGTGGCTACGACGGGATT
B10: CUCGUGA (DNA:RNA)
RNA: B1 RNA with U25C, A26U, A27C, C30G, G31A
DNA 1: CAATCTGAATTCCGGTCTCCC
DNA 2: TGGTGGCTACGACGGGATT
B11: UAGACUU (DNA:RNA)
RNA: B1 RNA with A27G, G28A, U29C, C30U, G31U
DNA 1: CAATCTGAATTCCGGTCTCCC
DNA 2: TGGTGGCTACGACGGGATT
B12: GCACUGG (DNA:RNA)
RNA: B1 RNA with U25G, A26C, G28C, C30G
DNA 1: CAATCTGAATTCCGGTCTCCC
DNA 2: TGGTGGCTACGACGGGATT
B13: GCGAAUC (DNA:RNA)
RNA: GGGAGACCGGAAUUCAGAUUGUCCGCGAAUCUUAAAUCCCGUCGUAGCCACCA
DNA 1: CAATCTGAATTCCGGTCTCCC
DNA 2: TGGTGGCTACGACGGGATT
B14: UGCCCAA (DNA:RNA)
RNA: B1 RNA with A26G, A27C, G28C, U29C, C30A, G31A
DNA 1: CAATCTGAATTCCGGTCTCCC
DNA 2: TGGTGGCTACGACGGGATT
B15: UCUGUGA (DNA:RNA)
RNA: B1 RNA with A26C, A27U, C30G, G31A
DNA 1: CAATCTGAATTCCGGTCTCCC
DNA 2: TGGTGGCTACGACGGGATT
B16: AGACGGG (DNA:RNA)
RNA: B1 RNA with U25A, A26G, G28C, U29G, C30G
DNA 1: CAATCTGAATTCCGGTCTCCC
DNA 2: TGGTGGCTACGACGGGATT
B17: CCCUUCG (DNA:RNA)
RNA: B1 RNA with U25C, A26C, A27C, G28U
DNA 1: CAATCTGAATTCCGGTCTCCC
DNA 2: TGGTGGCTACGACGGGATT
B18: UGUAUAG (DNA:RNA)
RNA: B1 RNA with A26G, A27U, G28A, C30A
DNA 1: CAATCTGAATTCCGGTCTCCC
DNA 2: TGGTGGCTACGACGGGATT
B19: AGGGGUU (DNA:RNA)
RNA: B13 RNA with G25A, C26G, A28G, A29G, C31U
DNA 1: CAATCTGAATTCCGGTCTCCC
DNA 2: TGGTGGCTACGACGGGATT
B20: UACACAG (DNA:RNA)
RNA: B1 RNA with A27C, G28A, U29C, C30A
DNA 1: CAATCTGAATTCCGGTCTCCC
DNA 2: TGGTGGCTACGACGGGATT
B21: ACUCCUG (DNA:RNA)
RNA: B13 RNA with G25A, G27U, A28C, A29C, C31G
DNA 1: CAATCTGAATTCCGGTCTCCC
DNA 2: TGGTGGCTACGACGGGATT
B22: CGCUAUU (DNA:RNA)
RNA: B13 RNA with G25C, C26G, G27C, A28U, C31U
DNA 1: CAATCTGAATTCCGGTCTCCC
DNA 2: TGGTGGCTACGACGGGATT
B23: UGGAGGU (DNA:RNA)
RNA: B13 RNA with G25U, C26G, A29G, U30G, C31U
DNA 1: CAATCTGAATTCCGGTCTCCC
DNA 2: TGGTGGCTACGACGGGATT
B24: ACUACAG (DNA:RNA)
RNA: B13 RNA with G25A, G27U, A29C, U30A, C31G
DNA 1: CAATCTGAATTCCGGTCTCCC
DNA 2: TGGTGGCTACGACGGGATT
B25: GGCUUUU (DNA:RNA)
RNA: B13 RNA with C26G, G27C, A28U, A29U, C31U
DNA 1: CAATCTGAATTCCGGTCTCCC
DNA 2: TGGTGGCTACGACGGGATT
B26: CAUUUAC (DNA:RNA)
RNA: B1 RNA with U25C, A27U, G28U, C30A, G31C
DNA 1: CAATCTGAATTCCGGTCTCCC
DNA 2: TGGTGGCTACGACGGGATT
B27: GCAAUCG (DNA:RNA)
RNA: B1 RNA with U25G, A26C, G28A
DNA 1: CAATCTGAATTCCGGTCTCCC
DNA 2: TGGTGGCTACGACGGGATT
B28: GAAAAGG (DNA:RNA)
RNA: B13 RNA with C26A, G27A, U30G, C31G
DNA 1: CAATCTGAATTCCGGTCTCCC
DNA 2: TGGTGGCTACGACGGGATT
B29: GCUACAC (DNA:RNA)
RNA: B13 RNA with G27U, A29C, U30A
DNA 1: CAATCTGAATTCCGGTCTCCC
DNA 2: TGGTGGCTACGACGGGATT
B30: CUCGAGU (DNA:RNA)
RNA: B13 RNA with G25C, C26U, G27C, A28G, U30G, C31U
DNA 1: CAATCTGAATTCCGGTCTCCC
DNA 2: TGGTGGCTACGACGGGATT
B31: UUGCAAA (DNA:RNA)
RNA: B13 RNA with G25U, C26U, A28C, U30A, C31A
DNA 1: CAATCTGAATTCCGGTCTCCC
DNA 2: TGGTGGCTACGACGGGATT

target: T1, RBFOX1 RRM; assay: EMSA; HiTS-Eq, 1 nM pool, 10 min; buffer printed only for the single-RNA assays: 10 mM Tris pH 7.5, 150 mM NaCl, 3.4 mM EDTA, 0.001% NP-40, 30 C; conditions: tags: His6 N-terminal (pET28a); label: 5' 32P
Outline: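 These values rest on relative association constants, computed from read-count changes of each RNA species versus the control reaction and normalised to the cognate motif. Reads came from free RNA recovered by 8% native PAGE after purified RbFox RRM (wild type or mutant) at increasing concentrations was equilibrated for 10 min in 50 µL with 1 nM of a 5′-radiolabelled pool with 7 randomized nucleotides and DNA-annealed flanks.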

Binder | binding signal
B1 | 0.00936 KA relative to UGCAUGU
B2 | 0.014 KA relative to UGCAUGU
B3 | 0.0166 KA relative to UGCAUGU
B4 | 0.00479 KA relative to UGCAUGU
B5 | 0.0122 KA relative to UGCAUGU
B6 | 0.0159 KA relative to UGCAUGU
B7 | 0.00458 KA relative to UGCAUGU
B8 | 0.0101 KA relative to UGCAUGU
B9 | 0.0228 KA relative to UGCAUGU
B10 | 0.00777 KA relative to UGCAUGU
B11 | 0.00623 KA relative to UGCAUGU
B12 | 0.0189 KA relative to UGCAUGU
B13 | 0.0124 KA relative to UGCAUGU
B14 | 0.0128 KA relative to UGCAUGU
B15 | 0.0143 KA relative to UGCAUGU
B16 | 0.00285 KA relative to UGCAUGU

Binder | binding signal
B17 | 0.00212 KA relative to UGCAUGU
B18 | 0.0148 KA relative to UGCAUGU
B19 | 0.0261 KA relative to UGCAUGU
B20 | 0.00791 KA relative to UGCAUGU
B21 | 0.00677 KA relative to UGCAUGU
B22 | 0.00582 KA relative to UGCAUGU
B23 | 0.024 KA relative to UGCAUGU
B24 | 0.00303 KA relative to UGCAUGU
B25 | 0.0115 KA relative to UGCAUGU
B26 | 0.00178 KA relative to UGCAUGU
B27 | 0.0112 KA relative to UGCAUGU
B28 | 0.00901 KA relative to UGCAUGU
B29 | 0.00819 KA relative to UGCAUGU
B30 | 0.0119 KA relative to UGCAUGU
B31 | 0.0109 KA relative to UGCAUGU
